Results reported in PubChem BioAssay AID686978 (National Center for Advancing Translational Sciences (NCATS), 2013).
The campaign covered roughly 420,000 compounds. About 64,000 (15%) were called active. Inconclusive means that the source gave no clear call. Such entries were picked first, then a sample of the others. The call rests on the fitted dose curve; in most records, active means well fitted inhibition curve with a large enough effect; inconclusive means small, poorly fitted or top-dose-only effect; inactive means flat fitted curve, though single readings scatter. Potencies of inconclusive entries are left out as doubtful fits.

Assay: qHTS for Inhibitors of human tyrosyl-DNA phosphodiesterase 1 (TDP1): qHTS in cells in absence of CPT; further: nearly all actives have a fitted effect of over 55% in size
Settings: DT40 Tdp1-/- hTDP1 cells, no CPT, ATP luminescence, 48 h; activity change, negative = growth inhibition: at 46.2 µM (top of the series) unless noted
Summary of the method: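 Chicken DT40 Tdp1-/- cells stably complemented with human TDP1 were seeded at 400 cells/well with DMSO in place of 20 nM camptothecin. After compound pinning, cells grew at least 48 hr at 37 °C; viability read by CellTiter-Glo luminescence.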
On the % scale 0 is the no-effect control and ±100 the full control effect; potency means the concentration at half of the fitted maximal effect; tags describe the fitted curve by direction and shape.

Row | SMILES | Potency | activity change, negative = growth inhibition
1 | Nc1nc2c(Br)ccc(Br)c2cc1C(=O)NCc1cccc2ccccc12 | inconclusive [inhibitor, partial curve] | –
2 | COc1cc(Cl)ccc1NC(=S)N(CCCN1CCOCC1)Cc1cn(C)c2ccccc12 | active: 20.6 µM | –
3 | O=C(CNC(=O)c1ccc(F)cc1)c1ccc(Cl)cc1 | inconclusive [inhibitor, single point] | –
4 | O=C(N/N=C(\c1ccccc1)c1cccnc1)c1ccc(O)cc1 | – | inactive: 13.4%
5 | CCCc1nc(SCC(=O)N2CCOCC2)c2c(C)c(C)sc2n1 | inconclusive [inhibitor, single point] | –
6 | Cc1ccc(-c2cc(C(=O)NCc3cccs3)no2)cc1 | – | inactive: -11.4%
7 | COc1ccc(CCNC(=O)[C@H](CC(C)C)NC(=O)N2CCn3c2nc2ccccc23)cc1OC | inconclusive [inhibitor, single point] | –
8 | Cc1cc2nc(/N=C(\N)NC(=O)N3c4ccccc4Sc4ccccc43)nc(C)c2cc1C | active: 14.6 µM | –
9 | COc1ccc(OC)c(NC(=O)N(C)CCc2c(C)nn(C)c2C)c1 | – | inconclusive: -31.3% [inhibitor]
10 | Cc1cccc(-n2ncc3c(NCc4cccs4)ncnc32)c1 | inconclusive [inhibitor, partial curve] | –
11 | COCCCN1C(=O)N(c2ccc(F)cc2)C(=O)C1CC(=O)Nc1ccc(OC)cc1 (stereo unspecified) | – | inactive: -21.4%
12 | CCCCn1c(-c2cccc3ccccc23)nc2cc3[nH]c(=O)c(C(C)C)nc3cc21 | active: 16.4 µM | –
13 | CCOC(=O)c1c(C)nc(C)c(C(=O)OCC)c1-c1cccc([N+](=O)[O-])c1 | inconclusive [inhibitor, partial curve] | –
14 | O=C(O)c1ccc(S(=O)(=O)c2ccc([N+](=O)[O-])cc2[N+](=O)[O-])cc1 | inconclusive [inhibitor, single point] | –
15 | CC1CCCCN1CCNC(=O)c1ccc2c(c1)N(Cc1ccccc1)C(=O)c1ccccc1S2(=O)=O (stereo unspecified) | inconclusive [inhibitor, single point] | –
16 | C(=Nc1cccnc1)c1ccc2ccccc2n1 | active: 1 µM | –
17 | COC(=O)C1=C(C)N(Cc2ccc(OC)c(OC)c2)C(=O)C1 | inconclusive [inhibitor, single point] | –
18 | O=C(NNC(=O)c1ccc(Oc2cc(Cl)cc(Cl)c2)o1)c1ccccc1 | inconclusive [inhibitor, single point] | –
19 | CCOC(=O)N1CCN(C(=O)CSc2nc(=O)n3ccccc3n2)CC1 | – | inactive: -22.1%
20 | O=C(N=Nc1c(O)n(Cc2ccccc2)c2ccccc12)c1ccc(O)cc1 | active: 23.1 µM | –
21 | COc1ccc(C(=O)NCC(=O)N=Nc2c(O)n(Cc3ccccc3)c3ccccc23)cc1OC | active: 16.4 µM | –
22 | O=C(CSc1nnc(-c2ccccc2)n1Cc1ccco1)Nc1ccc2c(c1)OCCO2 | inconclusive [inhibitor, single point] | –
23 | CCc1cccc(C)c1NC(=O)c1cn2c3c(ccc(Cl)c3c1=O)OC(C)C2 (stereo unspecified) | inconclusive [inhibitor, partial curve] | –
24 | COc1ccc(CN2CCNC(=O)C2CC(=O)O)c(OC)c1 (stereo unspecified) | – | inactive: -14.5%

Row | SMILES | Potency | activity change, negative = growth inhibition
25 | Cc1ccccc1-c1ccccc1CN1[C@@H](C(C)C)COCCS1(=O)=O | active: 18.4 µM | –
26 | Cn1ccc2c(N(c3ccccc3)C3CCCCC3)cc3c(c21)C1CCC3O1 (stereo unspecified) | inconclusive [inhibitor, single point] | –
27 | Cc1sc2nc(-c3ccccn3)[nH]c(=O)c2c1-c1ccccc1 | active: 10.3 µM | –
28 | Cc1cc(C2(c3ccc(O)c(C)c3)OC(=O)c3ccccc32)ccc1O | inconclusive [inhibitor, single point] | –
29 | Cc1cc(-c2nc3ncccc3o2)ccc1NC(=O)c1ccc(Cl)cc1 | – | inactive: 1.69%
30 | CCOc1ccc(NC(=S)N2CCC(C(=O)c3ccc(F)cc3)CC2)cc1 | inconclusive [inhibitor, single point] | –
31 | COc1ccc(S(=O)(=O)N2CCCCCC2)cc1C(=O)NCCc1ccccc1 | inconclusive [inhibitor, single point] | –
32 | CN(C)C(=S)NC(=O)C12CC3CC(C)(CC(C)(C3)C1)C2 | inconclusive [inhibitor, single point] | –
33 | Cc1ccccc1OCC(=O)NCCNC(=O)c1ccncc1 | – | inactive: -1.57%
34 | CCCCOc1ccc(C(O)(CCC)CCN2CCOCC2)cc1 (stereo unspecified) | active: 16.4 µM | –
35 | CCCC(=O)NC(C)C(c1cccs1)N1CCN(c2ccccc2)CC1 (stereo unspecified) | – | inactive: -22.2%
36 | NC(=O)N/N=C/c1ccccc1OC(=O)c1ccccc1Br | – | inactive: -25%
37 | Cc1cccc(NC(=O)c2ccc([N+](=O)[O-])cc2Cl)n1 | inconclusive [inhibitor, single point] | –
38 | Clc1ccc(-c2cc(CSc3ccccc3)on2)cc1 | – | inconclusive: -34.8% [inhibitor]
39 | COC(=O)CSc1ccc2nnc(CCNS(=O)(=O)c3ccccc3)n2n1 | inactive | –
40 | CCOC(=O)c1c(NC(=O)CSc2nnnn2-c2ccc3c(c2)OCCO3)sc(C)c1C | inconclusive [inhibitor, single point] | –
41 | O=c1c2cc(NC(=S)NC3CCCCC3)ccc2nc2n1CCCCC2 | inconclusive [inhibitor, single point] | –
42 | CCCNC(=O)C1(C)CCCN(Cc2ccc(Cl)cc2)C1 (stereo unspecified) | inconclusive [inhibitor, single point] | –
43 | O=C(Cc1ccccc1)NC(NNc1ccccc1)(C(F)(F)F)C(F)(F)F | inconclusive [inhibitor, single point] | –
44 | O=C(CN1C(=O)NC(Cc2c[nH]c3ccccc23)C1=O)NC1CCCCC1 (stereo unspecified) | – | inactive: -12.5%
45 | Cc1ccc(C)c(NC(=O)c2cc3ccccn3n2)c1 | – | inactive: -27%
46 | CCOc1ccc(S(=O)(=O)NCC(c2ccc(N(C)C)cc2)N2CCc3ccccc32)cc1 (stereo unspecified) | inconclusive [inhibitor, single point] | –
47 | CN1CCN(c2ncnc3ccc(-c4ccoc4)cc23)CC1 | active: 23.1 µM | –
48 | Cn1c(N)c(C(=O)Nc2c(Cl)cccc2Cl)sc1=S | inconclusive [inhibitor, single point] | –

Row | SMILES | Potency | activity change, negative = growth inhibition
49 | O=C1/C(=C/c2ccc(F)c(F)c2)CSc2sccc21 | inconclusive [inhibitor, partial curve] | –
50 | COc1ccc(-c2cc(=O)c3cc(O)ccc3o2)cc1 | – | inactive: -15%
51 | CC(=O)N1CCN(Cc2nc3cc([N+](=O)[O-])ccc3n2C)CC1 | inconclusive [inhibitor, single point] | –
52 | Cc1ccc(-c2nnc(N3CCN(C(=O)c4cccs4)CC3)c3ccccc23)cc1 | active: 23.1 µM | –
53 | CC1CCN(c2ccccc2NC(=O)c2ccc(N3CCOCC3)c([N+](=O)[O-])c2)CC1 | – | inactive: -6.06%
54 | O=C(NC1CCCCC1)C(c1ccc(O)cc1)N(C(=O)c1cnccn1)c1cccc(F)c1 (stereo unspecified) | – | inactive: -21.4%
55 | CN(C)c1ncc2nc(-c3ccccc3)c(=O)n(C3CC3)c2n1 | inconclusive [inhibitor, single point] | –
56 | Cc1ccn2cc(CCNC(=O)COc3ccccc3)nc2c1 | inconclusive [inhibitor, single point] | –
57 | CCOc1ccccc1C(=O)N/N=C/c1cccc2cccnc12 | inconclusive [inhibitor, single point] | –
58 | Cn1c(SCC(=O)NC2CCS(=O)(=O)C2)nc2ccccc21 (stereo unspecified) | – | inactive: -25.1%
59 | Cc1cccc(N2CCN(C(=O)[C@H](C)N3C(=O)C4CC=CCC4C3=O)CC2)c1C (stereo partly specified) | active: 25.9 µM | –
60 | C[C@@H]1CCCCO[C@H](CN(C)S(=O)(=O)c2cccs2)[C@@H](C)CN([C@H](C)CO)C(=O)c2cc(NC(=O)Nc3ccc4c(c3)OCO4)ccc2O1 | inconclusive [inhibitor, partial curve] | –
61 | Cc1cc(C)c(C(=O)CC2(O)C(=O)Nc3ccccc32)cc1C (stereo unspecified) | inconclusive [inhibitor, single point] | –
62 | O=C(Nc1ccc(F)c(Cl)c1)N1CCC(CN2CCc3ccccc3C2)CC1 | inconclusive [inhibitor, single point] | –
63 | C/C(=N\NC(=O)c1ccc(N(C)C)cc1)c1ccc(C)c(C)c1 | inconclusive [inhibitor, single point] | –
64 | COc1ccccc1OCCNC(=O)c1cc(C2CC2)nc2c1cnn2C(C)C | inconclusive [inhibitor, single point] | –
65 | O=C(NCc1cccc(Cl)c1)c1ccc(-c2cccnc2)c2ccoc12 | inconclusive [inhibitor, single point] | –
66 | O=C(CC(c1ccc(F)cc1)c1ccco1)Nc1nccs1 (stereo unspecified) | inconclusive [inhibitor, partial curve] | –
67 | C=CCNc1nc(N)c(C(=C(C#N)C#N)c2ccc(Br)cc2)s1 | inconclusive [inhibitor, single point] | –
68 | Cc1ccc(N=C2S/C(=C\c3cn(CC(=O)O)c4ccccc34)C(=O)N2C)cc1 | – | inconclusive: -30.4% [inhibitor]
69 | CSc1nc2ccc(NC(=O)c3c(-c4ccccc4)noc3C)cc2s1 | inconclusive [inhibitor, single point] | –
70 | Cc1cc([N+](=O)[O-])nn1Cc1ccc(C(=O)N/N=C/c2ccccc2)cc1 | inconclusive [inhibitor, full curve] | –
71 | O=C(NCCc1ccccc1)c1ccc(NCC2CCCO2)c([N+](=O)[O-])c1 (stereo unspecified) | inconclusive [inhibitor, single point] | –
